The campaign covered roughly 410,000 compounds. About 530 (0.13%) were called active. The inconclusive results got no clear call from the source; some entries with a clear call stand among them for comparison. The call rests on the fitted dose curve; in most records, active means well fitted inhibition curve with a large enough effect; inconclusive means small, poorly fitted or top-dose-only effect, or another doubt; inactive means no such curve, though single readings can be large or run the other way. A potency beside an inconclusive call is a rough fit, not a confirmed value.
Assay: qHTS of GLP-1 Receptor Inverse Agonists: Cytotox Screen
Details: HEK293 cAMP-luciferase reporter cells, luminescence, 24 h; activity change, negative = inhibition: at 38.3 µM (top of the series) unless noted
Procedure, shortened: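 A 23 nL compound transfer followed 12 hours of cell culture at 37 deg C; exposure then lasted 24 hr. Luciferase assay detection reagent was dispensed and plates read for luminescence after a 12 min room-temperature wait.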
On the % scale 0 is the no-effect control and ±100 the full control effect; potency means the concentration at half of the fitted maximal effect.

Q: For `CCOC(=O)c1cc(C)nc(Sc2ccc(C)cc2)c1C#N`, which Potency is on record?
A: inconclusive: 2.51 µM [inhibitor, partial curve, poor fit]

Q: With `C(=N\Nc1nc(N2CCCC2)nc(N2CCCC2)n1)/c1ccccc1OCc1ccccc1` as the molecule, how does the Potency read?
A: inconclusive: 10 µM [inhibitor, partial curve, poor fit]

Q: With `Cc1ccsc1/C=N/Nc1nc2ccccc2[nH]1` as the molecule, how does the Potency read?
A: inconclusive: 28.2 µM [inhibitor, single point]

Q: Which Potency does the source give for `Cc1ccc(NC(=O)Nc2nnc(SCC(=O)N3CCC(C)CC3)s2)cc1` here?
A: inconclusive: 28.2 µM [inhibitor, single point]

Q: With `Cc1cc(C)c2nc(/N=C(\N)NC(=O)Nc3ccccc3)nc(C)c2c1` as the molecule, how does the Potency read?
A: inconclusive: 10 µM [inhibitor, partial curve, poor fit]

Q: Which Potency does the source give for `Cc1cc(C(=O)O)cc(Br)c1N` here?
A: inactive

Q: With `COc1ccc(C2C=C(c3ccc(C)c(C)c3)Nc3ncnn32)c(OC)c1OC` (centres undefined) as the molecule, how does the Potency read?
A: inactive

Q: With `Cc1cc(C)n2c(Br)c(CSc3nc4ccccc4s3)nc2n1` as the molecule, how does the Potency read?
A: inactive

Q: With `CCN(CC)c1nc2ccccc2n2cnnc12` as the molecule, how does the Potency read?
A: inconclusive: 14.1 µM [inhibitor, single point]

Q: With `Nc1c(C(O)(C(F)(F)F)C(F)(F)F)cc(C(O)(C(F)(F)F)C(F)(F)F)c2ccccc12` as the molecule, how does the Potency read?
A: inconclusive: 28.2 µM [inhibitor, single point]

Q: With `CC(C)[C@H](NC(=O)OC(C)(C)C)c1nnc(S(=O)(=O)Cc2c(F)cccc2Cl)o1` as the molecule, how does the Potency read?
A: inconclusive: 11.2 µM [inhibitor, partial curve]

Q: Which Potency does the source give for `CC(=O)OCCNc1cc(Sc2nc3ccccc3[nH]2)c2nonc2c1[N+](=O)[O-]` here?
A: inconclusive: 11.2 µM [inhibitor, single point]

Q: Which Potency does the source give for `COc1ccc(CCNCC(O)COc2ccc(OC)cc2C(C)(C)C)cc1` (centres undefined) here?
A: inconclusive: 28.2 µM [inhibitor, single point]

Q: For `COc1ccccc1NC(=O)CSc1nc(O)c(Cc2ccccc2)c(=O)[nH]1`, which Potency is on record?
A: inconclusive: 28.2 µM [inhibitor, single point]

Q: For `Cc1n[nH]c(=S)n1/N=C/c1ccc(OCc2ccc(Cl)cc2Cl)cc1`, which Potency is on record?
A: inconclusive: 7.94 µM [inhibitor, partial curve, poor fit]

Q: For `CCO[C@H]1OC(C(=O)O)=C[C@@H](c2ccccc2)[C@@H]1CCCO`, which Potency is on record?
A: inconclusive: 1.41 µM [inhibitor, full curve, poor fit]

Q: With `CCc1ccc(-c2cc(C)no2)cc1S(=O)(=O)Nc1ccc(Cl)cc1` as the molecule, how does the Potency read?
A: inconclusive: 11.2 µM [inhibitor, single point]

Q: With `COc1ccc(-c2noc(-c3ccc(NC(C)c4ccccc4)c([N+](=O)[O-])c3)n2)cc1OC` (centres undefined) as the molecule, how does the Potency read?
A: inactive

Q: With `O=[N+]([O-])c1ccccc1/C=C/C=N/n1c(-c2ccco2)n[nH]c1=S` as the molecule, how does the Potency read?
A: inconclusive: 28.2 µM [inhibitor, single point]

Q: With `CC(C)c1nnc(NC(=O)c2nc(S(=O)(=O)Cc3ccccc3F)ncc2Cl)s1` as the molecule, how does the Potency read?
A: inconclusive: 12.6 µM [inhibitor, single point]

Q: Which Potency does the source give for `COC(=O)NN1C(=O)C(c2ccccc2)=C(c2ccc(Cl)cc2)C1=O` here?
A: inconclusive: 31.6 µM [inhibitor, single point]

Q: With `COc1ccccc1Nc1c2c(nc3ccccc13)CCC2` as the molecule, how does the Potency read?
A: inconclusive: 15.8 µM [inhibitor, partial curve, poor fit]

Q: Which Potency does the source give for `CC1=NN(c2nc3ccccc3[nH]2)C(=O)C1Cc1ccccc1` (centres undefined) here?
A: inconclusive: 17.8 µM [inhibitor, partial curve, poor fit]

Q: With `COc1ccc(C2(O)CC3CCC(C2)N3c2cc(C)nc(-c3ccccc3)n2)cc1` (centres undefined) as the molecule, how does the Potency read?
A: inconclusive: 28.2 µM [inhibitor, single point]

Q: For `O=C(CSc1n[nH]c(-c2ccccn2)n1)Nc1cccc(Cl)c1`, which Potency is on record?
A: inconclusive: 11.2 µM [inhibitor, partial curve, poor fit]

Q: With `CC1CCN(CCOCCOc2ccc(Br)cc2Cl)CC1` as the molecule, how does the Potency read?
A: inconclusive: 14.1 µM [inhibitor, single point]

Q: With `COc1ccc(CN(C(=O)Cc2c[nH]c3ccccc23)C(C(=O)NC2CCCCC2)c2ccc(C)o2)cc1` (centres undefined) as the molecule, how does the Potency read?
A: inactive

Q: For `COc1cc(OC)cc(C(=O)N/N=C\c2ccoc2)c1`, which Potency is on record?
A: inconclusive: 1.41 µM [inhibitor, full curve]

Q: Which Potency does the source give for `O=C1c2ccccc2C(=O)c2c(/C=C/N3CCCCC3)ccnc21` here?
A: inconclusive: 12.6 µM [inhibitor, partial curve, poor fit]

Q: Which Potency does the source give for `COc1ccc(Br)cc1CSC(=N)N` here?
A: inactive

Q: For `COc1ccc(-c2cc3c(nn2)-c2ccccc2C3=O)cc1`, which Potency is on record?
A: inactive

Q: For `COC(=O)C(C(=O)OC)C(CC(=O)c1ccc(C)cc1)c1cc(OC)c(OC)c(OC)c1` (centres undefined), which Potency is on record?
A: inconclusive: 28.2 µM [inhibitor, single point]

Q: Which Potency does the source give for `CC1(C)C2CC=C(/C=N/NC(=O)c3ccccc3O)C1C2` (centres undefined) here?
A: inconclusive: 11.2 µM [inhibitor, single point]

Q: For `CCOC(=O)COn1c(=O)c(-c2ccc(C)cc2)[n+]([O-])c2ccccc21`, which Potency is on record?
A: inactive

Q: For `CNC(=O)c1ccc(Nc2nnc(-c3ccc(C)c(S(=O)(=O)N4CCOCC4)c3)c3ccccc23)cc1`, which Potency is on record?
A: inactive

Q: Which Potency does the source give for `CCOC(=O)c1ccccc1NC(=O)N(Cc1ccco1)C1CCN(C(C)=O)CC1` here?
A: inactive

Q: For `COC(=O)c1c(NC(=O)Cc2cccs2)sc2c1CCC(C)C2` (centres undefined), which Potency is on record?
A: inactive

Q: For `Cn1cnc([N+](=O)[O-])c1Oc1ccccc1`, which Potency is on record?
A: inconclusive: 10 µM [inhibitor, partial curve, poor fit]

Q: For `CCc1cc2cc(C)ccc2nc1SCC(=O)N1CC(=O)Nc2ccccc21`, which Potency is on record?
A: inconclusive: 28.2 µM [inhibitor, single point]

Q: For `COc1ccc2[nH]cc(C(=O)CCl)c2c1`, which Potency is on record?
A: inconclusive: 10 µM [inhibitor, partial curve, poor fit]

Q: Which Potency does the source give for `OC1CCCN(C(=S)NCc2ccccc2)C1` (centres undefined) here?
A: inactive

Q: With `Cc1sc(NC(=O)c2ccco2)c(C(c2cccnc2)N2CCCC2)c1C` (centres undefined) as the molecule, how does the Potency read?
A: inactive

Q: Which Potency does the source give for `O=C(NC(C(=O)N/N=C/c1cccc2ccccc12)c1n[nH]c(=O)c2ccccc12)c1ccccc1` (centres undefined) here?
A: inconclusive: 14.1 µM [inhibitor, single point]

Q: For `CCN1C(=O)C(CC(=O)Nc2ccc(F)cc2)N(Cc2ccco2)C1=S` (centres undefined), which activity change, negative = inhibition is on record?
A: inactive: -6.19% [at 7.66 µM]

Q: For `C=CCOc1ccc(C(=O)Nc2ccccc2C(=O)NCc2cccnc2)cc1`, which Potency is on record?
A: inconclusive: 10 µM [inhibitor, partial curve, poor fit]

Q: Which Potency does the source give for `O=C(NC(c1ccc(Cl)cc1)c1c(O)ccc2ccccc12)c1ccccc1` (centres undefined) here?
A: inconclusive: 22.4 µM [inhibitor, single point]

Q: With `Cc1ccc(C(=O)NCc2ccc3c(c2)OCO3)cc1S(=O)(=O)N1CCCCC1` as the molecule, how does the Potency read?
A: inactive

Q: Which Potency does the source give for `c1ccc(-c2cc3nc(NCc4cccs4)nc(NCc4ccc5occc5c4)c3s2)cc1` here?
A: inconclusive: 28.2 µM [inhibitor, single point]

Q: With `CSc1ccc2c(c1)C(N1CCN(C)CC1)Cc1ccccc1S2` (centres undefined) as the molecule, how does the Potency read?
A: inconclusive: 28.2 µM [inhibitor, single point]

Q: Which Potency does the source give for `S=c1[nH]nc(-c2cc(-c3ccccc3)n[nH]2)n1/N=C/c1c(Cl)cccc1Cl` here?
A: inconclusive: 28.2 µM [inhibitor, partial curve, poor fit]

Q: For `O=C(Nc1ccc(OC(F)F)c(Cl)c1)Nc1ccc2c(c1)OCO2`, which Potency is on record?
A: inconclusive: 11.2 µM [inhibitor, single point]

Q: For `COCCNC(=O)Cc1c(C)c2c(cc(C)c3c(C(C)(C)C)coc32)oc1=O`, which activity change, negative = inhibition is on record?
A: inconclusive: -38.2% [inhibitor]

Q: With `COc1ccccc1/C=C1\SC(=S)N(Nc2nc(C)cc(C)n2)C1=O` as the molecule, how does the Potency read?
A: inactive

Q: Which Potency does the source give for `O=C(NCc1ccc(F)cc1)c1c(O)nc2ccccn2c1=O` here?
A: inactive

Q: Which Potency does the source give for `Cc1cc(O)c2c(c1O)C(=O)[C@]13C(=C2O)C(=O)[C@@H]2[C@@H](O)[C@H]1[C@@H]1[C@H](O)[C@H]3C(=O)C3=C(O)c4c(O)cc(C)c(O)c4C(=O)[C@]312` here?
A: inconclusive: 11.2 µM [inhibitor, partial curve]

Q: Which Potency does the source give for `COc1ccc(C(=O)N/N=C/c2ccc3cccc(OCc4ccccc4)c3n2)cc1` here?
A: inconclusive: 10 µM [inhibitor, single point]

Q: Which Potency does the source give for `O=C(Nc1cccc(Cl)c1)c1cnc[nH]1` here?
A: inactive

Q: Which Potency does the source give for `CCC(=O)NC(=S)Nc1ccccc1C(=O)OC` here?
A: inactive

Q: With `CC(=O)NC(=O)c1nnn(Cc2ccccc2)c1NC(C)=O` as the molecule, how does the Potency read?
A: inactive

Q: Which Potency does the source give for `CCOCCCn1c(SCC(=O)Nc2ccc(C)cc2)nc2ccccc2c1=O` here?
A: inactive

Q: Which Potency does the source give for `COc1ccc(-c2c(-c3cc(OC)cc(OC)c3)n(C)c3ccc(-c4ccc5cc[nH]c5c4)cc23)cc1` here?
A: inconclusive: 22.4 µM [inhibitor, single point]

Q: Which Potency does the source give for `O=[N+]([O-])/C=C/c1cn(Cc2ccc(Cl)cc2)c2ccccc12` here?
A: inconclusive: 15.8 µM [inhibitor, single point]

Q: Which Potency does the source give for `O=C(NCc1ccc(Cl)c(Cl)c1)c1cc(C2CCCCN2C(=O)OCCF)on1` (centres undefined) here?
A: inactive

Q: With `CCC(Oc1ccccc1)C(=O)Nc1cc(-c2ccccc2OC)nn1-c1ccccc1` (centres undefined) as the molecule, how does the Potency read?
A: inactive

Q: For `CCCCN(C)C(=O)C1CCC(CNS(=O)(=O)c2ccc(Cl)cc2)CC1` (centres undefined), which Potency is on record?
A: inactive

Q: For `CCOc1cc(CNc2ccc3c(c2)OCCO3)cc(Br)c1OCC`, which Potency is on record?
A: inactive

Q: Which Potency does the source give for `Cc1ccc(C)c(N2CN(CCC3=CCCCC3)CNC2=S)c1` here?
A: inconclusive: 28.2 µM [inhibitor, single point]

Q: For `Cc1ccc(Nc2nc(N)nc(CN3CCc4ccccc4C3)n2)cc1`, which Potency is on record?
A: inactive

Q: For `CCN1CCN(S(=O)(=O)c2ccc(Cl)c(C(=O)N(CC)CC(=O)Nc3ccc(OC)cc3)c2)CC1`, which Potency is on record?
A: inactive

Reference: PubChem BioAssay AID624418 (National Center for Advancing Translational Sciences (NCATS), 2012)
